# According to article PMC4336329 (PLoS ONE, 2015):
# The campaign covered roughly 310,000 compounds. About 14,000 (4.5%) showed an effect of 50% or more. Effects have a minus sign here. This is one part of the list.
# Target: human ether-à-go-go-related gene (hERG) potassium channel (human, UniProt Q12809)
# Test: primary screen, population patch clamp on CHO cells stably expressing hERG
# 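Further: peak tail current of the secondary pulse compared with the same well before compound.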
# Chain of human ether-à-go-go-related gene (hERG) potassium channel (Q12809 whole entry, looked up): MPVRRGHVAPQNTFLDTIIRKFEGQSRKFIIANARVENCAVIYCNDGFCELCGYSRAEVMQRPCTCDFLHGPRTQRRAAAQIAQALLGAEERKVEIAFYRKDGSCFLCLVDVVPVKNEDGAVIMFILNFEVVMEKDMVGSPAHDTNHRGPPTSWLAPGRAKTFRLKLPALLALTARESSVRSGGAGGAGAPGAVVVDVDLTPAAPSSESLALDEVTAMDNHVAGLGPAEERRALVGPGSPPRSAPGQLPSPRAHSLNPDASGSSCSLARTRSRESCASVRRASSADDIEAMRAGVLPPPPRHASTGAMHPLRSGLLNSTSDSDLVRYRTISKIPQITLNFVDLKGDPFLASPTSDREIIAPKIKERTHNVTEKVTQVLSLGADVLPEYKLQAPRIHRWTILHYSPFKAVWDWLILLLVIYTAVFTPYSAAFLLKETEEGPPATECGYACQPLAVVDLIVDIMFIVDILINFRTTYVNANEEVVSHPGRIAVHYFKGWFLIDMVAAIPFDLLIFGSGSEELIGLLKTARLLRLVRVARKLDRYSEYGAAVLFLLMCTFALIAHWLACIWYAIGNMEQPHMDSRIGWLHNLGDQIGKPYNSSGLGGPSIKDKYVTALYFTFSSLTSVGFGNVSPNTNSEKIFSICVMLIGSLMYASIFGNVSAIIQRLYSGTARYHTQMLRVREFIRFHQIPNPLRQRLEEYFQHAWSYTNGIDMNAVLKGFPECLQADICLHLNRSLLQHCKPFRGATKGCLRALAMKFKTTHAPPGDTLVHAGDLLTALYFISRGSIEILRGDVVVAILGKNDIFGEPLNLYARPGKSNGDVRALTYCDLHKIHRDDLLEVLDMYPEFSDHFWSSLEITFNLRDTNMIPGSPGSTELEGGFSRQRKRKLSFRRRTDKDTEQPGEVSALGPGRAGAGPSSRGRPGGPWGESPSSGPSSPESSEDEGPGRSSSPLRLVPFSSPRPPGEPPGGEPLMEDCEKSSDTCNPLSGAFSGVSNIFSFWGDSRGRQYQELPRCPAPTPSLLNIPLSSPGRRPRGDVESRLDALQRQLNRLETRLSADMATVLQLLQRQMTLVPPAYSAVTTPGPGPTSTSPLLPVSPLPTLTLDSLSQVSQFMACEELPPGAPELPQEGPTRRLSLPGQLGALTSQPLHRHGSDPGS
row,SMILES,"hERG current change (%, negative = inhibition) at 10uM [%]"
1,Cn1c(=O)c2c(nc(N3CCc4ccccc4C3)n2Cc2ccccc2F)n(C)c1=O,-20.7
2,Cc1cccc2cc(-c3ccccc3)c(-c3ccccc3)c[n+]12.[Br-],-45.4
3,O=C1COc2ccc3ccccc3c2CN1,6.37
4,COC(=O)C1C/C(=N\NS(=O)(=O)c2ccc(C)cc2)c2sccc2C1 (stereo not drawn),-12.5
5,O=c1cc(-c2ccc3c(c2)OCCO3)oc2ccc(Cl)cc12,-1.8
6,Cc1cccc(NC(=O)c2ccccc2C(=O)O)c1,-11.5
7,O=C(NC(=S)NCCN1CCOCC1)c1ccc(F)cc1,-4.01
8,Cc1ccc(C(=O)NNC(=O)Cc2nc3nc(C)cc(C)n3n2)cc1,11.9
9,COC(CNC(=O)c1cnn2c(C)c(Cc3ccccc3)c(C)nc12)OC,-19
10,CC(C)N(C)S(=O)(=O)c1ccc(NC(=O)CSC(=S)N2CCCC2)cc1,0.708
11,CN(CC(=O)Nc1ccc(F)c(F)c1F)C(=O)c1ccc(=O)[nH]c1,0.382
12,O=C(N1CCCC1)N1CCN(S(=O)(=O)c2ccccc2)CC1,7.18
13,CCCCn1c(CN2CCOCC2)nc2c1c(=O)n(C)c(=O)n2C,4.48
14,CC(=O)Nc1ccc(Nc2ncnc3c2cnn3-c2ccc(C)cc2C)cc1,-18.8
15,COc1ccc(C(=O)O)cc1S(=O)(=O)NCc1cccnc1,19.4
16,C/C=C(\C)CN1CCC(Oc2cc(C(=O)NC3CC3)ccc2OC)CC1,-64.5
17,O=C(COC(=O)c1cc(=O)[nH]c2ccccc12)NC1CCCCCCC1,-2.97
18,COC(=O)C(C(=O)OC)C(c1ccccc1)C(C(=O)c1ccccc1)[N+](=O)[O-] (stereo not drawn),4.74
19,O=C(CCc1nc2ccccc2[nH]c1=O)OCC(=O)c1ccc(Cl)cc1,2.47
20,C/C(=N\NC(=O)COc1ccccc1[N+](=O)[O-])c1cccc(NC(=O)c2ccncc2)c1,-8.15
21,COc1ccc(-c2csc(NC(=O)Cc3ccccc3F)n2)cc1OC,2.29
22,O=C(c1cc(N2C(=O)C3C4CCC(C4)C3C2=O)ccc1Cl)N1CCN(c2ccccc2F)CC1 (stereo not drawn),-0.361

row,SMILES,"hERG current change (%, negative = inhibition) at 10uM [%]"
1,Cc1ccc2c(c1C)NC(=O)C2(O)CC(=O)c1ccc2c(c1)OCO2 (stereo not drawn),-6.7
2,COc1ccc(Cn2ccnc2)cc1Br.Cl,1.37
3,COc1ccccc1OCCCn1cc(C(=O)C2CC2)c2ccccc21,-2.64
4,Cc1ccc(S(=O)(=O)c2ccc(Cl)cc2)cc1S(=O)(=O)N1CCN(C)CC1,-27
5,Cc1nc2cc(Cl)c(Cl)cc2nc1C,14.1
6,COc1cc(C(=O)NCC(=O)N/N=C/c2ccc(-c3ccc([N+](=O)[O-])cc3)o2)cc(OC)c1OC,3.23
7,O=C(O)/C=C/C(=O)Nc1nccs1,19.3
8,O=C(NCCOc1ccccc1-c1ccccc1)c1ccco1,1.75
9,COc1cc(/C=N/NS(=O)(=O)c2ccc(C)c([N+](=O)[O-])c2)cc([N+](=O)[O-])c1O,18.1
10,COc1ccc(OC)c(NC(=O)C2CCCN2C(=O)NC2CCCCC2)c1 (stereo not drawn),-4.24
11,O=C(CCCc1ccccc1)Nc1cccc2c1CCCC2,-2.28
12,O=C(CCNC(=O)c1ccc([N+](=O)[O-])cc1)Nc1ccc(F)c(F)c1F,-10.2
13,CCOC(=O)c1ccc(N2CCOCC2)c(NC(=O)c2nccnc2C(=O)O)c1,15.1
14,O=C(O)CCCCCNS(=O)(=O)c1cccc2c1C(=O)c1ccccc1C2=O,-29.5
15,Cc1nc(CNS(=O)(=O)c2ccc(Oc3ccccc3)cc2)cs1,-22.3
16,O=C(CSc1ccccc1)NCc1ccc(F)cc1,-0.327
17,Cc1ccc(N(C(=O)c2csnn2)C(C(=O)NC(C)(C)C)c2ccccn2)cc1 (stereo not drawn),15.4
18,CC(=O)c1ccc(NC(=O)C(C)NCc2ccc(Cl)cc2)cc1 (stereo not drawn),16.2
19,CCOC(=O)C1(Cc2cccc(F)c2)CCN(C(=O)COC)CC1,7.65
20,N#Cc1ccccc1Sc1ccccc1C(=O)NCC(c1ccco1)N1CCCC1 (stereo not drawn),-27.9
21,Cc1nn(Cc2ccccc2)c(C)c1C(=O)NCCN1C(=O)S/C(=C\c2ccccc2)C1=O,3.52
22,Cc1ccc(CCN2CC(C(=O)NCCCN3CCN(C)CC3)CC2=O)cc1 (stereo not drawn),-8.81

row,SMILES,"hERG current change (%, negative = inhibition) at 10uM [%]"
1,CCC1(c2ccccc2)NC(=O)N(CC(=O)Nc2ccccc2N2CCCC2)C1=O (stereo not drawn),1.38
2,Cc1ccccc1NC(=O)COC(=O)c1ccc2nc(C)c(C)nc2c1,15.2
3,COc1ccc(N(CC(=O)NC(C)(C)C)C(=O)CCC(=O)Nc2nccs2)cc1,3.94
4,O=C(COC(=O)c1ccccc1NC(=O)c1ccco1)NC1CCCCC1,-13.4
5,Cc1ccc(-n2nnnc2CN2CCCCC2)cc1,10.3
6,O=C(CCC(=O)OCC(=O)c1ccc(Br)cc1)Nc1ccc(Br)c2cccnc12,-0.131
7,CC1=C(C(=O)OCC(C)C)C(c2ccsc2)C2=C(CCCC2=O)N1 (stereo not drawn),-18.9
8,COc1ccc(-n2c(SCC(=O)/C(C#N)=C(\C)N)nc3ccccc3c2=O)cc1OC,10.5
9,CC1(c2nnc(Cc3ccccc3)o2)CC(c2cccnc2)=NO1 (stereo not drawn),3.26
10,CCOC(=O)c1ccc(Oc2cn[nH]c2-c2ccc(O)cc2O)cc1,10.9
11,COc1cccc(/C=C/C(=O)OCC(=O)NC2CC2)c1,13.2
12,COc1ccc(-c2[nH]ncc2/C=N\NC(=O)c2ccc(C(C)(C)C)cc2)cc1OC,-9.5
13,Clc1ccc(CSc2nnc(-c3cccnc3)n2Cc2ccco2)c(Cl)c1,-68.7
14,CC(=O)c1ccc(NC(=O)c2noc3c2CCCCC3)cc1,7.54
15,CC1(C)CC(=O)C(N=Nc2c(F)cccc2F)=C(O)C1,18.7
16,COc1cc(CN2C(=O)NC(=O)C3(Cc4cc(C)ccc4N(C)C3)C2=O)cc(OC)c1 (stereo not drawn),-10.7
17,Cc1ccc(NC(=O)COC(=O)CCC(=O)c2cccs2)c(Br)c1,5.47
18,Cc1ccc(/C=C/C(=O)OCC(=O)Nc2ccccc2Sc2ccccc2)cc1,-15.3
19,CC(C)CCn1nc(C(=O)OC(C)C(=O)NC(N)=O)c2ccccc2c1=O (stereo not drawn),4.86
20,CCN1CCN(C(=O)C(C)N(c2ccc(C)cc2)S(C)(=O)=O)CC1 (stereo not drawn),13.7
21,CC1C=CCC2C(=O)N(c3cccc(C(=O)NCCc4ccccc4)c3)C(=O)C12 (stereo not drawn),-8.03
22,COc1ccc(C(=O)OC2CCCCC2CN(C)C)cc1.Cl (stereo not drawn),14.1

row,SMILES,"hERG current change (%, negative = inhibition) at 10uM [%]"
1,Cc1cc(C)c2sc(NC(=O)C3=COCCO3)nc2c1,-11.6
2,Cc1ccc2nc(-c3ccccn3)cc(C(=O)NC(C)C(C)(C)C)c2c1 (stereo not drawn),19.4
3,COc1ccccc1NC(=O)Nc1cc(C(C)(C)C)nn1C,14
4,CC1=C(C(=O)NCc2ccccc2)C(c2cccs2)n2ncnc2N1 (stereo not drawn),12.2
5,Cc1cccc(NS(=O)(=O)c2ccc(C)c(C(=O)NCC(c3ccccc3)N(C)C)c2)c1 (stereo not drawn),-14.2
6,Cc1nc(Cl)sc1C(=O)Nc1ccccc1Cl,8.63
7,COc1ccc(CNC(=O)C2CCN(S(=O)(=O)c3ccc4c(c3)C(C)(C)C(=O)N4C)CC2)cc1,4.74
8,Br.C=CCN1C(c2ccccc2)=CS/C1=C(\C#N)c1nnc2n1CCCCC2,-59.2
9,O=C(c1cccc(-c2nnc(-c3ccccc3)o2)c1)N1CCCCC1,-19.3
10,O=C(COc1ccccc1Cl)NCc1ccncc1,-11.5
11,CN(C)CCCn1c(SCCN2C(=O)c3ccccc3C2=O)nc2ccccc2c1=O,-45
12,COc1ccc(OC)c(S(=O)(=O)Nc2cc3c4c(c2)CCC(=O)N4CCC3)c1,9.75
13,Cc1ccnc(NC(=O)c2ccccc2NC(=O)c2ccccc2)c1,13.7
14,O=C(c1ccnc(Cl)c1)N1CCCC(Nc2ccc(F)cc2)C1 (stereo not drawn),5.04
15,O=C(NC(=S)Nc1cccc([N+](=O)[O-])c1)C1CCCC1,-16.7
16,CCn1cnc2cc(NC(=O)c3ccc(C)cc3)ccc21,0.392
17,COc1ccc(NC(=O)CN(C)CC(=O)Nc2cccc(C(F)(F)F)c2)cc1,-22.4
18,Cc1cc(OCCCC(=O)NC2=NCCS2)ccc1Cl,14.2
19,NC(=O)c1c(Nc2nc3c(F)cccc3s2)sc2c1CCCC2,19.5
20,CCOc1ccccc1NC(=O)C1CCCN(C(=O)NCc2ccccc2)C1 (stereo not drawn),-13.4
21,c1ccc(-c2nnc3n2N=C(c2ccc4c(c2)OCO4)CS3)nc1,-32.7
